The values that follow come from ChEMBL document CHEMBL1201862, “PubChem BioAssay data set” (2004).

Where “and” joins values, the source holds several entries; their conditions need not be identical. Identical values can stand only once.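 Where inhibition never reached the appropriate level, the endpoint shown equals the highest concentration tested. Otherwise, values were interpolated linearly from a five-concentration, 48-hour dose response in 96-well plates. GI50 marks 50% less growth.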 Calls of active or inactive are those of the source. Cut-off read from the data, not from the text of the source: active = GI50 up to about 1.1 µM and inactive = higher.

This test has as its system NCI-H322M. The test is described as follows: NCI tumour cell line growth inhibition, 48 h.
With `S=c1sc2c(Cl)ncnc2n1-c1ccccc1`, the GI50 was inactive: 13.6 µM.

As to `Cc1noc(NC(=O)Nc2ccccc2F)c1C#N`, the GI50 is inactive: > 29.6 µM.

Consider `c1ccc2nc3c(nc2c1)sc1nc2ccccc2n13`, for which the GI50 was inactive: > 100 µM.

In the case of `C[C@]12CC[C@@H]3c4cc(OCC(F)(F)F)c(O)cc4CC[C@H]3[C@@H]1CC[C@@H]2O`, the GI50 is inactive: 2.11 µM.

In the case of `Cc1nc2c(nc1C)C(=O)c1ccccc1C2=O`, the GI50 is inactive: 2.21 µM.

As to `CCOC(=O)[C@]1(OC(C)=O)C[C@H](OC(C)=O)[C@@H](C(F)COP(=O)(OCc2ccccc2)OCc2ccccc2)O1` (some centres undefined), the GI50 is inactive: > 100 µM and inactive: 81.1 µM.

Take `COc1ccc(/C=C\c2cc(OC)c(OC)c(OC)c2)cc1OC`: the GI50 was active: 0.279 µM.

As to `N/N=C(\N)SCCCCCCCCCCS/C(N)=N/N`, the GI50 was inactive: 39.2 µM.

Regarding `Cc1cc(-c2no[n+]([O-])c2-c2cc(C)sc2S(C)(=O)=O)c(S(C)(=O)=O)s1`, the GI50 is inactive: > 100 µM.

Turning to `CN1N=CSC12C(=O)N(c1ccc(Cl)cc1)C(=O)N2c1ccc(Cl)cc1` (centres undefined), the GI50 is inactive: 4.67 µM.

On to `COc1cc2c(cc1OCCCCCCCCCCN1C(=O)c3cccc4cccc(c34)C1=O)N=C[C@@H]1CCCN1C2=O`, for which the GI50 was inactive: 17.3 µM.

Consider `Cc1ncc(CO)c(CN)c1O`, for which the GI50 was inactive: > 100 µM.

In the case of `O=C1c2ccccc2N2OC3(N4CCOCC4)CCCC3C12c1ccccc1` (centres undefined), the GI50 is inactive: > 100 µM.

For `O=[N+]([O-])c1ccccc1[S+]([O-])c1ccccc1` (centres undefined), the GI50 was inactive: 57.8 µM.

As for `CC(=O)N1C(C(=O)NN2CCOCC2)CSC1c1ccccc1` (centres undefined), the GI50 is inactive: > 100 µM.

With `C=CCN1C(=O)CC1N(CC=C)S(=O)(=O)c1ccc(C)cc1` (centres undefined), the GI50 was inactive: > 100 µM.

Take `COc1ccc(C2OC(c3ccncc3)=NN2C)cc1F` (centres undefined): the GI50 was inactive: > 100 µM.

With `COC(=O)[C@]1(C)CCC[C@@]2(C)C1CCC1=C[C@@]3(C(C)C)CC[C@]12OO3` (some centres undefined), the GI50 is inactive: 50.1 µM.

For the molecule `O=[N+]([O-])c1cc2ncc(-c3ccccc3)c(O)c2cc1/C(Cl)=C/c1ccccc1`, the GI50 was inactive: 13.6 µM.

Regarding `Cc1nc(N)nc(N)c1CCCCc1ccccc1`, the GI50 was inactive: 17.6 µM.

For the molecule `CCOC(=O)NC1C2CC(=O)OC(O2)C1OC(C)=O` (centres undefined), the GI50 is inactive: > 100 µM.

In the case of `NC(=S)Nc1nc(=S)[nH]c2[nH]ccc12`, the GI50 was inactive: > 100 µM.

Turning to `O=C(c1ccc(Cl)cc1)C1OC12C(=O)Nc1c(Cl)cc(Cl)cc12` (centres undefined), the GI50 is inactive: 54 µM.

For `COc1ccc2c(c1)/C(=C\c1c(Cl)nc3n1CCS3)C(=O)N2`, the GI50 is inactive: 5.75 µM.

Turning to `CC(C)CC1N=C(OCc2ccccc2)OC1=O` (centres undefined), the GI50 was inactive: > 100 µM.

Take `COC(=O)C1=C(C(=O)OC)C(Cc2ccccc2)(OO)OC1=O` (centres undefined): the GI50 was inactive: 19.7 µM.

Turning to `CCOCN/C(N)=N\C#N`, the GI50 is inactive: > 100 µM.

Turning to `CCOC(=O)c1c(C)c2c(n1C)CCc1c[nH]nc1-2`, the GI50 is inactive: > 100 µM.

In the case of `Cc1c(C#N)c2ccccc2c2nc3ccccc3n12`, the GI50 is inactive: > 100 µM.

As for `O=C1CCSc2c(cnc3ccccc23)N1`, the GI50 was inactive: > 100 µM.

In the case of `CC(=O)Nc1c(Nc2ccccc2)[nH]c(C)nc1=S`, the GI50 is inactive: > 100 µM.

For `C1=N\c2ccc(cc2)/N=C\c2ccccc2OCc2cccc(n2)COc2ccccc2/1`, the GI50 was inactive: > 100 µM.

`O=C(/C=C/c1ccco1)N1CCN(Cc2ccccc2)CC1`: the GI50 was inactive: > 100 µM.

In the case of `COC1CCC(=O)N1CN(C(C)=O)c1ccc(C)cc1` (centres undefined), the GI50 was inactive: > 100 µM.

On to `COc1cc(NS(C)(=O)=O)ccc1NCc1c2ccccc2nc2ccccc12`, for which the GI50 was inactive: > 100 µM.

Regarding `CCOC(=O)/C(C#N)=C/c1ccc(CO)o1`, the GI50 is inactive: > 100 µM.

Regarding `COc1ccc2c(c1)C1Oc3ccccc3CC1CO2` (centres undefined), the GI50 was inactive: 81.7 µM.

On to `O=C1Nc2cccc(Cl)c2/C1=C\c1cccnc1`, for which the GI50 is inactive: 16.3 µM.

On to `c1ccc2c(OCCSCCCCCCCCCCSCCOc3cccc4ccccc34)cccc2c1`, for which the GI50 is inactive: > 100 µM.

`CC1=CC(C)C(C)N(CCNS(=O)(=O)c2ccc(C)cc2)c2ccccc21` (centres undefined): the GI50 is inactive: 17.7 µM.

Turning to `CN(CCO)CCCC1COc2ccccc2O1` (centres undefined), the GI50 was inactive: > 100 µM.

As to `COc1cc([C@@H]2c3cc4c(cc3[C@@H](NC(=O)c3ccc([N+](=O)[O-])cc3)C3COC(=O)[C@@H]32)OCO4)cc(OC)c1O` (some centres undefined), the GI50 was inactive: 3.88 µM.

As to `C=C1c2nc3ccccc3n2C=C(c2ccc(Cl)cc2)N1c1ccc(OC)cc1`, the GI50 was inactive: 20 µM.

Take `COc1ccc(/C=C/c2nnc(S)[nH]2)cc1OC`: the GI50 was inactive: > 100 µM.

Turning to `O=C1N[C@H]2C(=O)c3c(Cl)sc(Cl)c3[C@H]2O1`, the GI50 is inactive: 9.55 µM.

`CCOC(=O)c1c(O)cn2c1[nH]c1cccc3cccc2c31`: the GI50 was inactive: > 100 µM.

As to `O=C(O)CCNS(=O)(=O)c1ccc([N+](=O)[O-])cc1`, the GI50 was inactive: > 100 µM.

As for `O=C(C1OC1c1cccc([N+](=O)[O-])c1)C12CC3CC(CC(C3)C1)C2` (centres undefined), the GI50 is inactive: 9.73 µM.

Take `Nc1cc(=O)n(-c2ccccc2)c(=S)n1-c1ccccc1`: the GI50 is inactive: > 100 µM.

For `O/N=C1/Nc2ccccc2C(=S)N2CSCC12` (centres undefined), the GI50 was inactive: 65.2 µM.

Consider `Cc1cc2nc(N3C(=O)/C(=C/c4ccc(Oc5ccccc5)cc4)N=C3c3ccccc3)sc2cc1C`, for which the GI50 was inactive: > 100 µM.

With `N#Cc1c(N2CCCC2)ncn(Cc2ccccc2)c1=S`, the GI50 is inactive: > 85.7 µM.

Regarding `C#CCOC(=O)c1ccc(OC(C)=O)cc1`, the GI50 was inactive: > 100 µM.

Consider `COc1ccc2c(c1)C(=O)N1CCOC1C2C(=O)O` (centres undefined), for which the GI50 was inactive: > 100 µM.

With `CC[C@@]1(O)CC(OC2CC(N3CCOCC3)C(O)C(C)O2)c2c(O)c3c(c(O)c2[C@H]1O)C(=O)c1cccc(O)c1C3=O` (some centres undefined), the GI50 is active: 0.205 µM.

Consider `CCCCCC#COC1CC(C)CC[C@@H]1C(C)C` (some centres undefined), for which the GI50 is inactive: > 100 µM.

As to `C=CCCCCCCCC(O)C1C[C@H](O)C(CCCCC)O1` (some centres undefined), the GI50 was inactive: 17.9 µM.

With `COc1cccc2c1[C@]1(O)C(O)CCCC21` (some centres undefined), the GI50 is inactive: > 100 µM.

Regarding `COc1ccccc1-c1cc(=O)c2ccc(OC)c(OC)c2o1`, the GI50 was inactive: 61.7 µM.

For the molecule `O=C1c2ccccc2C(=O)c2c1ccc1c2OCO1`, the GI50 is inactive: > 100 µM.

On to `CCN1/C(=C/C(C)=C/c2sc3ccccc3[n+]2CC)Sc2ccccc21`, for which the GI50 was active: 0.342 µM.

As to `O=c1cc(-c2ccccc2F)[nH]c2ccc(N3CCCC3)cc12`, the GI50 was active: 0.00139 µM.

On to `O=C(C(=O)N1CCc2ccccc21)c1c[nH]c2ccccc12`, for which the GI50 is inactive: > 10 µM.

With `O=[N+]([O-])c1ccc(/N=N/N2CCCC2)cc1`, the GI50 was inactive: > 100 µM.
